Data published in PubChem BioAssay AID1347417 (National Center for Advancing Translational Sciences (NCATS), 2020).
Out of some 120,000 compounds screened, about 5,300 (4.4%) were called active. Inconclusive results, whose numbers are uncertain, are shown with a selection of clear calls. The call rests on the fitted dose curve; in most records, active means well fitted inhibition curve with a large enough effect; inconclusive means small, poorly fitted or top-dose-only effect; inactive means no such curve, though single readings can be large or run the other way. A potency beside an inconclusive call is a rough fit, not a confirmed value.

Test: qHTS Primary assay for Inhibitors of Plasmodium falciparum Dd2 growth in vitro; further: nearly all actives have a fitted effect of over 65% in size
Conditions: P. falciparum Dd2 growth, SYBR Green, 72 h; series mostly up to 28.9 µM
In short: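 Readout: SYBR Green fluorescence, 485 nm excitation, 535 nm emission, after ~16 h lysis at 37C. Before that, Dd2-infected red cells (2.5% hematocrit) grew 72 h with compound, 29 uM top final concentration.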
Potency means the concentration at half of the fitted maximal effect; tags describe the fitted curve by direction and shape.

Row | SMILES | Potency | outcome
1 | CC(=O)Nc1cccc(-c2ccc3ncn(-c4cccnc4)c(=O)c3n2)c1 | inconclusive: 11.2 µM [inhibitor, single point] | 
2 | O=C(Nc1ccc2nnc(-c3ccc(C(=O)N4CCSCC4)cc3)n2c1)C1CCC1 | active: 2.24 µM | 
3 | O=C(NC1CCCCC1)N1Cc2[nH]cnc2C[C@H]1c1nc(-c2ccccc2)no1 | inconclusive: 31.6 µM [inhibitor, single point] | 
4 | COc1cccc(CC(=O)Nc2ccc3nc(N4CCC(C)CC4)cc(C)c3c2)c1 | inconclusive: 20 µM [inhibitor, single point] | 
5 | O=C(NCCc1ccccc1)N1CC(c2noc(C3CCCN3CC3CC3)n2)C1 (stereo unspecified) | inconclusive: 20 µM [inhibitor, single point] | 
6 | Fc1c(Cl)cccc1Nc1ncncc1-c1nc(-c2ccccc2)no1 | inactive | 
7 | CC1(c2ccccc2)N(Cc2ccccc2C#N)C(=O)OC12CCN(Cc1ccccn1)CC2 (stereo unspecified) | inconclusive: 1.78 µM [inhibitor, partial curve, poor fit] | 
8 | COCC1CN(C2CCC2)CC12CCN(C(=O)c1nccc3ccccc13)CC2 (stereo unspecified) | inconclusive: 11.2 µM [inhibitor, partial curve] | 
9 | COc1ccc(CNC(=O)N2CC(N(C3CCOCC3)S(C)(=O)=O)C2)cc1 | inactive | 
10 | CCNc1ncnc2sc3c(c12)CCN(C(=O)NCCOC)C3 | inconclusive: 10 µM [inhibitor, single point] | 
11 | Cc1ccccc1Cn1cc(-c2ccncc2)cc1C(=O)NC(C)c1ccccn1 (stereo unspecified) | inconclusive: 10 µM [inhibitor, partial curve, poor fit] | 
12 | O=C(c1cccc(Cl)c1)N1CCC(N2CCCCCC2=O)CC1 | inactive | 
13 | O=C(c1ccc2nc[nH]c2c1)N1CCCC2(C1)Nc1cccnc1NC2=NC1CCCC1 (stereo unspecified) | inconclusive: 1.58 µM [inhibitor, full curve, poor fit] | 
14 | Cc1ncsc1CN1CCCCCCNC(=O)[C@@H]2C[C@@H](C(=O)N3CCc4ccccc4C3)C[C@@H]21 | active: 4.47 µM | 
15 | COc1ccc(-c2cc3c(nc2-c2ccccc2)nc(C(=O)NCCN(C)C)n3C)cn1 | active: 7.08 µM | 
16 | O=c1n(-c2ccc(Cl)cc2)nc2n1CCN(Cc1cccc3ccccc13)C2 | inconclusive: 0.0708 µM [inhibitor, full curve, poor fit] | 
17 | COc1cccc(C(=O)N2C[C@@H](Oc3ccccc3)C[C@@H]2C(=O)N2CCOCC2)c1 | inconclusive: 17.8 µM [inhibitor, single point] | 
18 | CCn1c(=O)c2cc(C(=O)N(CCCOC(C)C)Cc3ccco3)sc2c2ccccc21 | inconclusive: 7.94 µM [inhibitor, single point] | 
19 | COc1cccc(CC(=O)Nc2cccc(-c3nnc4n3CCCC4)c2)c1 | inconclusive: 2.51 µM [inhibitor, full curve] | 
20 | CC(=O)c1cccc(NC(=O)Cn2c(=O)c(CNc3ccc(C)cc3)cc3cc4c(cc32)OCCO4)c1 | inconclusive: 17.8 µM [inhibitor, single point] | 
21 | COc1ccccc1C(=O)Nc1ccc2nc(N3CCC(C)CC3)cc(C)c2c1 | inconclusive: 10 µM [inhibitor, partial curve, poor fit] | 

Row | SMILES | Potency | outcome
22 | CCOc1ccccc1NS(=O)(=O)c1c(C)nc2sccn2c1=O | inconclusive: 17.8 µM [inhibitor, single point] | 
23 | COc1cccc(CN2CCCC(c3nc(CCOc4cccc(C)c4)no3)C2)c1 (stereo unspecified) | inconclusive: 11.2 µM [inhibitor, single point] | 
24 | O=C(Cc1ccccc1F)N1CCC2(CC1)N(c1ccccc1)C(=O)CS2(=O)=O | inactive | 
25 | COC1CCC12CCN(C(=O)CC1CCN(C(C)=O)CC1)CC2 (stereo unspecified) | inactive | 
26 | CC[C@H]1CN(C(=O)c2ccnc(Cl)c2)CC[C@H]1CC(=O)O | inconclusive: 1.12 µM [inhibitor, partial curve, poor fit] | 
27 | CC(C)C[C@H](CO)NC(=O)C[C@@H]1c2nc(-c3cccnc3)sc2C[C@@H]2[C@](C)(CO)[C@H](O)CC[C@]21C | inconclusive: 7.08 µM [inhibitor, partial curve] | 
28 | COc1ccc(NC(=O)N2CCCC(c3nc(C4CCOCC4)no3)C2)cc1 (stereo unspecified) | inactive | 
29 | COc1ccccc1CNC(=O)c1ccccc1NC(=O)c1nsc2ccccc12 | inconclusive: 17.8 µM [inhibitor, single point] | 
30 | Cc1cc(C(=O)N2CCCCCC2c2nnc(-c3ccccc3)o2)n(C)n1 (stereo unspecified) | inconclusive: 2.24 µM [inhibitor, single point] | 
31 | COc1ccc(-c2cc(N3CCCC(NC(=O)c4ccc(F)c(F)c4)C3)n[nH]2)cc1 (stereo unspecified) | inconclusive: 2.51 µM [inhibitor, partial curve, poor fit] | 
32 | COc1ccc(C(=O)N2CCC3(CC2)C(OC)CN3c2cccc(F)c2)cc1 (stereo unspecified) | inactive | 
33 | O=C(CCc1nc2ccccc2[nH]1)N1CCC(c2noc(-c3ccncc3)n2)C1 (stereo unspecified) | inconclusive: 3.98 µM [inhibitor, partial curve, poor fit] | 
34 | COCCN1C(=O)[C@H]2CN(Cc3ccc(C)cc3C)C[C@H]2C1=O | inactive | 
35 | Clc1ccccc1N1CCN(c2ncnc3c2c(-c2ccccc2)cn3-c2ccccc2)CC1 | inconclusive: 12.6 µM [inhibitor, partial curve, poor fit] | 
36 | Cc1ccccc1NC(=O)CCC(=O)N1CCSc2ccccc21 | inactive | 
37 | Cc1ccc(S(=O)(=O)N(CC(=O)Nc2ccc(C(C)C)cc2)Cc2ccccc2)cc1 | inconclusive: 11.2 µM [inhibitor, single point] | 
38 | Cc1ccc(F)cc1-c1ccc(COc2ccc3c(cnn3CCC(=O)O)c2)cc1 | inconclusive: 5.62 µM [inhibitor, single point] | 
39 | O=C(NCCc1ccccc1)N1CCC(c2noc(-c3ccncc3)n2)C1 (stereo unspecified) |  | inactive [at 5.79 µM]
40 | CC(=O)c1ccc(NC(=O)O[C@@H]2CO[C@H]3[C@@H]2OC[C@@H]3NS(=O)(=O)Cc2ccccc2)cc1 | inactive | 
41 | CCOc1ccc(CCNC(=O)C2CCN(c3ncnc4c3nc3n4CCCCC3)CC2)cc1 | inconclusive: 4.47 µM [inhibitor, partial curve, poor fit] | 
